Experimental data reported in the supplement of paper PMC4604168 (melanoma cell lines).
The list shows a part of the results. Repeats are few or missing, and single values can be far off.

Assays:
Experiment in all cases: cell count relative to DMSO control; melanoma cells; higher = more viable cells
Details in all cases: library dose: standard library concentration; 72 h
G361 = test system: G361
IPC-298 = test system: IPC-298
IST-MEL1 = test system: IST-MEL1
LB2518-MEL = test system: LB2518-MEL
LOXIMVI = test system: LOXIMVI
MEL-HO = test system: MEL-HO
MZ2-MEL = test system: MZ2-MEL
MeWo = test system: MeWo
RPMI7951 = test system: RPMI7951
RVH-421 = test system: RVH-421
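Further: cells treated in 1,536-well plates, then fixed and DAPI-stained, with nuclei counted from automated high-throughput microscope images.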

| SMILES | cell count (G361) [%] | cell count (IPC-298) [%] | cell count (IST-MEL1) [%] | cell count (LB2518-MEL) [%] | cell count (LOXIMVI) [%] | cell count (MEL-HO) [%] | cell count (MZ2-MEL) [%] | cell count (MeWo) [%] | cell count (RPMI7951) [%] | cell count (RVH-421) [%] |
| --- | --- | --- | --- | --- | --- | --- | --- | --- | --- | --- |
| CC1(C)NC(=O)N(c2ccc([N+](=O)[O-])c(C(F)(F)F)c2)C1=O [nilutamide] + O=C(Nc1ccccc1)c1cc([N+](=O)[O-])ccc1Cl [GW9662] (first compound 5 µM, partner dose 10 µM) | 89.3 | 104 | 84.3 | 66.4 | 79.4 | 89.3 | 75 | 85.8 | 89.8 | 75.5 |
| C[C@@H]1CCN(C(=O)CC#N)C[C@@H]1N(C)c1ncnc2[nH]ccc12 + CC(C)CCN1c2nc(Nc3cc(F)c(O)c(F)c3)ncc2N(C)C(=O)C1C [BID1870] (first compound 5 µM, partner dose 1 µM) | 18.2 | 76 | 78.5 | 124 | 104 | 80.7 | 82.9 | 78.2 | 96 | 106 |
| O=c1[nH]nc(Sc2ncc([N+](=O)[O-])s2)n1-c1ccc2c(c1)OCCO2 + O=S(=O)(c1ccccc1)N(CC(F)(F)F)c1ccc(C(O)(C(F)(F)F)C(F)(F)F)cc1 [T0901317] (first compound 1 µM, partner dose 7 µM) | 90.5 | 86.7 | 103 | 90.3 | 97.7 | 88.2 | 98.2 | 87.5 | 97.1 | 213 |
| COc1cc(Nc2ncc(F)c(Nc3ccc4c(n3)NC(=O)C(C)(C)O4)n2)cc(OC)c1OC [Tamatinib] + Cn1cncc1[C@@](N)(c1ccc(Cl)cc1)c1ccc2c(c1)c(-c1cccc(Cl)c1)cc(=O)n2C [tipifarnib] (first compound 2 µM, partner dose 0.05 µM) | 67.8 | 66.9 | 46.8 | 60.7 | 28.9 | 71.1 | 85.5 | 63.8 | 20.1 | 81.4 |
| O=c1[nH]nc(Sc2ncc([N+](=O)[O-])s2)n1-c1ccc2c(c1)OCCO2 + CN(NC(=O)CC(=O)NN(C)C(=S)c1ccccc1)C(=S)c1ccccc1 [STA4783] (first compound 1 µM, partner dose 0.03 µM) | 44.4 | 68.6 | 84.3 | 20.8 | 86.8 | 75.2 | 110 | 11.5 | 60.7 | 31.8 |
| O=c1[nH]nc(Sc2ncc([N+](=O)[O-])s2)n1-c1ccc2c(c1)OCCO2 + Cn1c(=O)n(-c2ccc(C(C)(C)C#N)cc2)c2c3cc(-c4cnc5ccccc5c4)ccc3ncc21 [NVP-BEZ235] (first compound 1 µM, partner dose 0.02 µM) | 69.7 | 72.8 | 79.3 | 90.3 | 74.4 | 77.1 | 80 | 70.4 | 58.5 | 95.6 |
| C[C@@H]1CCN(C(=O)CC#N)C[C@@H]1N(C)c1ncnc2[nH]ccc12 + Cn1cncc1[C@@](N)(c1ccc(Cl)cc1)c1ccc2c(c1)c(-c1cccc(Cl)c1)cc(=O)n2C [tipifarnib] (first compound 5 µM, partner dose 0.05 µM) | 96.5 | 98.1 | 96.4 | 77.3 | 81.9 | 99.9 | 115 | 95 | 85 | 85.9 |
| O=c1[nH]nc(Sc2ncc([N+](=O)[O-])s2)n1-c1ccc2c(c1)OCCO2 + COC(=O)c1sccc1S(=O)(=O)Nc1ccc(Nc2ccccc2)cc1OC [GSK0660] (first compound 1 µM, partner dose 5 µM) | 97.4 | 80.5 | 116 | 118 | 93.9 | 110 | 79.2 | 95.2 | 103 | 100 |
| C[C@@H]1CCN(C(=O)CC#N)C[C@@H]1N(C)c1ncnc2[nH]ccc12 + COC(=O)c1sccc1S(=O)(=O)Nc1ccc(Nc2ccccc2)cc1OC [GSK0660] (first compound 5 µM, partner dose 5 µM) | 101 | 88.9 | 107 | 98.6 | 113 | 95 | 88.2 | 106 | 101 | 14.6 |
| Cn1cncc1[C@@](N)(c1ccc(Cl)cc1)c1ccc2c(c1)c(-c1cccc(Cl)c1)cc(=O)n2C [tipifarnib] + COc1cc2c(Oc3ccc4[nH]c(C)cc4c3F)ncnc2cc1OCCCN1CCCC1 [cediranib] (first compound 0.05 µM, partner dose 2 µM) | 77.2 | 102 | 71 | 84 | 58.2 | 91.3 | 98 | 72.7 | 60.2 | 109 |
| O=c1[nH]nc(Sc2ncc([N+](=O)[O-])s2)n1-c1ccc2c(c1)OCCO2 + Cn1cnc2c(F)c(Nc3ccc(Br)cc3Cl)c(C(=O)NOCCO)cc21 [selumetinib] (first compound 1 µM, partner dose 0.075 µM) | 63 | 50.4 | 87.1 | 41.4 | 109 | 75.8 | 54.2 | 72.3 | 96.8 | 60.5 |
